From the supplement of paper PMC4967469
IC50 is the fitted dose that halves viability relative to control wells, and lower means more sensitive; a fit beyond the top or the lowest dose is shown as a bound at that dose. AUC is the area under the same curve over the 256-fold range up to the top dose, as a fraction; it is 1 without any effect and falls as sensitivity rises. For some of these results: Where the top dose is marked as inferred, it was derived from the fitted curves, not read from the paper. For some of these results: Drugs with an entry number were screened twice under separate entries, and the two screens often disagree.

Columns and labels:
Assay in all cases: Viability of human cancer cell lines after 72 h of drug (GDSC screen)
[1] = compound: COc1cc(O)c2c(c1)/C=C/C[C@H](O)[C@H](O)C(=O)/C=C\C[C@H](C)OC2=O [(5Z)-7-Oxozeaenol]; conditions: top dose 10 µM; top dose inferred
Experimental: (§1)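 Human cancer cell lines in 384-well plates, medium with 10% serum, drug for 72 h over a 256-fold dose range (nine 2-fold or five 4-fold steps up to the top dose). Adherent lines were fixed and stained with the nucleic acid dye Syto60, suspension lines read with resazurin; signal relative to control wells, capped at 0 and 100%. One two-parameter sigmoid per drug and line, fitted in a mixed model over all curves with the slope shared within a line.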

[2] = compound: Cc1cnc(-c2cnc(NCCNc3ccc(C#N)cn3)nc2-c2ccc(Cl)cc2Cl)[nH]1 [CHIR-99021]
Experimental: as §1

[3] = compound: Nc1ccn([C@@H]2O[C@H](CO)[C@@H](O)[C@@H]2O)c(=O)n1 [Cytarabine]; conditions: top dose 2 µM
Experimental: as §1

[4] = compound: C/C=C(/C)C(=O)O[C@H]1C(C)=C2[C@H]([C@@H]1OC(=O)CCCCCCC)[C@@](C)(OC(C)=O)C[C@H](OC(=O)CCC)[C@@]1(O)[C@H]2OC(=O)[C@@]1(C)O [Thapsigargin]; conditions: top dose 0.512 µM; top dose inferred
Experimental: as §1

[5] = compound: CCn1c(-c2nonc2N)nc2cnc(Oc3cccc(NC(=O)c4ccc(OCCN5CCOCC5)cc4)c3)cc21 [GSK269962A]; conditions: top dose 5 µM; screen: GDSC drug entry 1192; top dose inferred
Experimental: as §1

[6] = compound: O=c1cc(-c2cccc3c2Sc2ccccc2S3)oc(N2CCOCC2)c1 [KU-55933]; conditions: top dose 10 µM
Experimental: as §1

[7] = compound: COc1nc(C)cnc1NS(=O)(=O)c1cccnc1-c1ccc(-c2nnco2)cc1 [Zibotentan]; conditions: top dose 20 µM; top dose inferred
Experimental: as §1

[8] = compound: COc1cc2ncnc(-n3nc(-c4ccccn4)nc3N)c2cc1OC [CP466722]; conditions: top dose 16 µM; top dose inferred
Experimental: as §1

[9] = compound: Cc1ccc(F)c(NC(=O)Nc2ccc(-c3cccc4[nH]nc(N)c34)cc2)c1 [ABT-869]; conditions: top dose 1.024 µM; top dose inferred
Experimental: as §1

[10] = compound: C=CC(=O)Nc1cc(-n2c(=O)ccc3cnc4ccc(-c5cn[nH]c5)cc4c32)ccc1C [QL-X-138]; conditions: top dose 10.24 µM; top dose inferred
Experimental: as §1

[11] = compound: COc1cc(N2CCC(O)CC2)ccc1Nc1cc(Nc2ccccc2S(=O)(=O)C(C)C)c2cc[nH]c2n1 [MPS-1-IN-1]; conditions: top dose 20 µM; top dose inferred
Experimental: as §1

[12] = compound: C[C@]1(c2nc3c(C(N)=O)cccc3[nH]2)CCCN1 [ABT-888]; conditions: top dose 5 µM; top dose inferred
Experimental: as §1

[13] = top dose 2.56 µM, screen: GDSC drug entry 154
[14] = top dose 10 µM, screen: GDSC drug entry 1241, top dose inferred

Row | Cell Line | AUC [1] | IC50 [1] | AUC [2, 13] | IC50 [2, 13] | AUC [2, 14] | IC50 [2, 14] | AUC [3] | IC50 [3] | AUC [4] | IC50 [4] | AUC [5] | IC50 [5] | AUC [6] | IC50 [6] | AUC [7] | IC50 [7] | AUC [8] | IC50 [8] | AUC [9] | IC50 [9] | AUC [10] | IC50 [10] | AUC [11] | IC50 [11] | AUC [12] | IC50 [12]
1 | HGC-27 (stomach, adherent) | 0.514 | 0.678 µM | 0.99 | > 2.56 µM | 0.964 | > 10 µM | 0.683 | 0.37 µM | 0.036 | < 0.002 µM | 0.777 | 1.7 µM | 0.987 | > 10 µM | 0.99 | > 20 µM | 0.843 | 8.91 µM | 0.99 | > 1.02 µM | 0.585 | 1.05 µM | 0.807 | 8.42 µM | 0.976 | > 5 µM
2 | HN (head and neck, adherent) | 0.495 | 0.605 µM | 0.988 | > 2.56 µM | 0.956 | > 10 µM | 0.577 | 0.2 µM | 0.954 | > 0.512 µM | 0.57 | 0.48 µM | 0.979 | > 10 µM | 0.989 | > 20 µM | 0.983 | > 16 µM | 0.978 | > 1.02 µM | 0.937 | > 10.2 µM | 0.989 | > 20 µM | 0.981 | > 5 µM
3 | HOS (osteosarcoma, adherent) | 0.654 | 1.54 µM | 0.992 | > 2.56 µM | 0.955 | > 10 µM | 0.726 | 0.481 µM | 0.089 | < 0.002 µM | 0.608 | 0.588 µM | 0.954 | > 10 µM | 0.992 | > 20 µM | 0.952 | > 16 µM | 0.987 | > 1.02 µM | 0.989 | > 10.2 µM | 0.992 | > 20 µM | 0.992 | > 5 µM
4 | HSC-2 (head and neck, adherent) | 0.786 | 3.96 µM | 0.988 | > 2.56 µM | 0.96 | > 10 µM | 0.84 | 1.23 µM | 0.19 | 0.0042 µM | 0.981 | > 5 µM | 0.975 | > 10 µM | 0.988 | > 20 µM | 0.941 | > 16 µM | 0.985 | > 1.02 µM | 0.892 | > 10.2 µM | 0.979 | > 20 µM | 0.989 | > 5 µM
5 | HT55 (large intestine, adherent) | 0.645 | 1.58 µM | 0.99 | > 2.56 µM | 0.989 | > 10 µM | 0.826 | 1.21 µM | 0.854 | 0.4 µM | 0.979 | > 5 µM | 0.99 | > 10 µM | 0.99 | > 20 µM | 0.99 | > 16 µM | 0.99 | > 1.02 µM | 0.99 | > 10.2 µM | 0.973 | > 20 µM | 0.99 | > 5 µM
